From article PMC3079584, “A Cytoplasmic Complex Mediates Specific mRNA Recognition and Localization in Yeast” (PLoS Biology, 2011)

Biological target: the molecule itself
Test: SEC; preparative size-exclusion chromatography, Superose 12 column, She2p variants alone; tetramerization judged from elution volume

B1: She2p (ΔC) (domain or fragment)
chain: not shown
notes: She2p, Saccharomyces cerevisiae, Gene ID 853728, the C-terminal six residues deleted; also called C-terminally truncated version of She2p
B1: binds.
